# “And” between values parts separate entries of the source, which are not always exact repeats. Equal entries are not always repeated. Out of some 310,000 compounds screened, about 11,000 (3.5%) were called active. The inconclusive results got no clear call from the source; some entries with a clear call stand among them for comparison. Calls come from the whole dose curve; as a rule, active = well fitted inhibition curve with a large enough effect; inconclusive = small, poorly fitted or top-dose-only effect, or effect the other way; inactive = flat fitted curve, though single readings scatter. Where the call is inconclusive, the potency comes from a doubtful curve fit.
# Test: VP16 counterscreen qHTS for inhibitors of ROR gamma transcriptional activity;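 note: Gal4-VP16 expression switched on by copper sulfate through the metallothionein promoter; nearly all actives have a fitted effect of over 50% in size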
# Details: Drosophila S2 Gal4-VP16 UAS-luciferase, luminescence, 20 h; series mostly up to 53.6 µM
# Potency is the fitted concentration of half-maximal effect; tags give direction and shape of the fitted curve.
row,Compound,Potency
1,Cc1nc(C)c(C(=O)Nc2ncc([N+](=O)[O-])s2)o1,"inconclusive: 11.2 µM [inhibitor, partial curve, poor fit]"
2,CC(CN1CCOCC1)C(=O)c1ccccc1 (configuration not stated),inactive
3,Cc1ccc(-n2nc(C)c3c2OC(N)=C(C#N)C3c2ccccc2F)cc1 (configuration not stated),inactive
4,CNC(=S)Nc1cc(C)ccc1OC(F)F,inactive
5,Cc1cc(C)nc(SCC(=O)N/N=C/C=C/c2ccccc2)n1,"inconclusive: 5.62 µM [activator, single point]"
6,O=C(Nc1ccc(Oc2cccnc2)cc1)c1ccccc1Cl,inactive
7,Cc1cnn(CCC(=O)NNC(=S)Nc2cccc(Cl)c2)c1,"inconclusive: 3.55 µM [inhibitor, partial curve]"
8,C=CCn1c(=O)/c(=C/c2ccc(O)cc2)s/c1=C(/C#N)c1nnc2n1CCCCC2,inactive
9,COc1ccc(NC(=O)C2CCCN(c3c4c(nc5ncnn35)CCC4)C2)cc1OC (configuration not stated),inactive
10,CCS(=O)(=O)c1ncc(Cl)c(C(=O)Nc2ccccc2OC)n1,active: 1.41 µM
11,O=C(NCCc1ccccc1)c1ccc2nc(N3CCOCC3)sc2c1,"inconclusive: 35.5 µM [inhibitor, single point]"
12,Cc1ccc(S(=O)(=O)c2c(C)nn(C(C)(C)C)c2OC(=O)C2CCCC2)cc1,"inconclusive: 25.1 µM [inhibitor, single point]"
13,CN(C)c1nc(-c2ccccn2)nnc1-c1ccccc1,inactive
14,N#Cc1cc2c(nc1SCc1nc3ccccc3[nH]1)CCC2,active: 11.2 µM
15,Clc1ccccc1CSc1nncn1NC/C=C/c1ccccc1,inactive
16,Cc1cc(=O)[nH]c(N=N/C(=N/Nc2ccccc2C)c2ccccc2)n1,active: 5.01 µM
17,CCOC(=O)c1nnc(-c2ccc(C)cc2)nc1Oc1ccc(Cl)cc1Cl,"inconclusive: 10 µM [inhibitor, partial curve]"
18,CS(=O)(=O)Cc1ccc(C(=O)N2CCCC2c2cccs2)cc1 (configuration not stated),inactive
19,CSc1nc2sc3c(c2c2nncn12)CCC3,"inconclusive: 3.55 µM [activator, single point]"
20,COc1cccc(/C=N/Nc2ncnc(Cl)c2N)c1O,active: 3.16 µM
21,Cc1c(C(=O)Nc2cccc(F)c2)cnn1-c1ccccc1,"inconclusive: 0.355 µM [activator, partial curve, poor fit]"
22,O=C(N/N=C/c1ccccc1)c1[nH]c2ccc(Br)cc2c1-c1ccccc1,"inconclusive: 35.5 µM [inhibitor, single point]"
23,O=C(O)CN1C(=O)/C(=C\c2cn(-c3ccccc3)nc2-c2ccccc2)SC1=S,inactive
24,O=C(NC(=S)Nc1ccc(N2CCOCC2)c(Cl)c1)c1sc2ccccc2c1Cl,"inconclusive: 5.01 µM [inhibitor, partial curve]"

row,Compound,Potency
1,Cc1cccc(C)c1NS(=O)(=O)c1ccc(-c2cnc(C3CC3)o2)cc1,"inconclusive: 35.5 µM [inhibitor, single point]"
2,COc1ccc(-c2nn(-c3ccccc3)cc2/C=C2/SC(=S)N(CCC(=O)O)C2=O)cc1,inactive
3,COc1ccc(NC(=O)CCSCCc2ccccn2)cc1OC,inactive
4,O=C1N/C(=C/c2ccc(N3CCCC3)cc2)C(=O)N1c1ccccc1,inactive
5,Nc1ccc(C(=O)N/N=C2\CCCc3c2[nH]c2ccccc32)cc1,"inconclusive: 35.5 µM [inhibitor, single point]"
6,Brc1ccc(-c2csc(N3CCC(c4ccccc4)C3)n2)cc1 (configuration not stated),"inconclusive: 3.16 µM [inhibitor, full curve, poor fit]"
7,Cn1c(SCc2cccc(C#N)c2)nc2ccccc2c1=O,"inconclusive: 35.5 µM [inhibitor, single point]"
8,O=C(CCCn1c(=O)[nH]c2cc(Cl)ccc2c1=O)NCCCN1CCN(c2ccc(F)cc2)CC1,"inconclusive: 35.5 µM [inhibitor, single point]"
9,COc1ccc(Cl)cc1NC(=S)Nc1ccccc1F,"inconclusive: 35.5 µM [inhibitor, single point]"
10,COc1ccc(-c2noc(CN(C)C(=O)c3ccco3)n2)cc1,"inconclusive: 31.6 µM [activator, single point]"
11,O=C(Cn1ncc2c3ccccc3n(Cc3cccc(Cl)c3)c2c1=O)NCc1ccccn1,"inconclusive: 10 µM [inhibitor, single point]"
12,Cn1nnnc1SCc1csc(Nc2ccccc2)n1,"inconclusive: 5.62 µM [inhibitor, full curve]"
13,COc1ccc(/C=C/C(=O)NC(=S)NCc2ccccc2)cc1OC,"inconclusive: 11.2 µM [inhibitor, partial curve]"
14,CCC(NC(=O)CCc1c(C)c2cc3c4c(oc3cc2oc1=O)CCCC4)C(=O)O (configuration not stated),"inconclusive: 14.1 µM [inhibitor, partial curve]"
15,CCOc1ccccc1N1CN(C2CCCCC2)CNC1=S,active: 14.1 µM
16,N/C(=N\OC(=O)c1ccc(Cl)cc1)c1[nH]ncc1Br,"inconclusive: 35.5 µM [inhibitor, single point]"
17,Cc1ccc2c(c1)C(c1ccccc1)N(C(=O)C(C)C)CC(=O)N2 (configuration not stated),"inconclusive: 15.8 µM [activator, single point]"
18,O=C(CSc1nnc(COc2ccccc2)n1-c1ccccc1)c1cccs1,"inconclusive: 25.1 µM [inhibitor, single point]"
19,COc1ccc(-c2cc(C(=O)NC3CCCC3)c3ccccc3n2)cc1,inactive
20,CCc1cccc2cc3c(N)c(C(=O)Nc4ccc(S(=O)(=O)N5CCCC5)cc4)sc3nc12,inactive
21,COC(=O)[C@@]1(Cc2ccc(OC)cc2)[C@@H]2C(=CC(=O)[C@H]2CC(=O)C(=O)N(C)C)CN1C(=O)c1ccccc1,"inconclusive: 3.98 µM [inhibitor, partial curve] and inconclusive: 35.5 µM [inhibitor, single point]"
22,COc1ccc(N=C2C(=O)Nc3ccc(C)c(Br)c32)cc1,"inconclusive: 17.8 µM [inhibitor, partial curve]"
23,COc1ccc(CCNC(=O)c2c(O)c3ccccc3[nH]c2=O)cc1,inactive
